Assay results from PubChem BioAssay (NCI).
“And” between values parts separate entries of the source, which are not always exact repeats. Equal values may be shown once.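 Cultured in 96-well plates, cells were exposed to test compound for 48 hours across five concentrations. GI50 = concentration required for 50% inhibition of growth. TGI is the concentration that stops growth completely.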

Tested on: NCI-H322M lung
Assay: inhibition of tumour cell growth, NCI panel, 48 h

SMILES: N=C(N)c1ccc(-c2ccc(-c3cc(Cl)cc(Cl)c3)s2)nc1
- GI50: 1.62 µM
- TGI: 2.99 µM

SMILES: Clc1ccc(CCn2cncn2)c(Cl)c1
- TGI: > 100 µM

SMILES: COc1cc(C2c3cc4c(cc3OC(O)C2C)OCO4)cc(OC)c1O (centres undefined)
- TGI: > 100 µM

SMILES: CO[C@H]1C[C@H](O[C@H]2CC[C@]3(C=O)[C@H]4CC[C@]5(C)[C@@H](C6=CC(=O)OC6)CC[C@]5(O)[C@@H]4CC[C@]3(O)C2)O[C@H](C)[C@H]1O[C@@H]1O[C@H](CO[C@@H]2O[C@H](CO)[C@@H](O)[C@H](O)[C@H]2O)[C@@H](O)[C@H](O)[C@H]1O
- TGI: 0.189 µM

SMILES: O=C1/C(=C/c2cccc3ccccc23)Cc2ccccc21
- TGI: > 100 µM

SMILES: COc1ccc(C2Oc3c(cccc3OC)C=C2[N+](=O)[O-])cc1 (centres undefined)
- TGI: 8.25 µM

SMILES: CC(=O)OCC1OC(OC2CC3C(C)(C)C(=O)CC[C@]3(C)C3CC[C@]45C[C@]4(CCC5[C@@H](C)CC(O)C(O)C(C)(C)O)[C@]23C)C(O)C(O)C1O (some centres undefined)
- TGI: 29.7 µM

SMILES: O=C1C(c2c(O)[nH]c3ccc(S(=O)(=O)N(CCO)CCO)cc23)=Nc2ccccc21
- TGI: > 100 µM

SMILES: Cc1ccccc1C(C#N)/C(=N/NC(=O)C(=O)NN)C(=O)Nc1cccc(C(F)(F)F)c1 (centres undefined)
- TGI: > 100 µM

SMILES: COc1ccc(C2C3=C(CCCC3=O)N(c3ccccc3)C3=C2C(=O)CCC3)cc1
- TGI: > 100 µM

SMILES: COc1ccc(N=C2C(=Nc3ccc(OC)cc3)N(c3ccccc3[N+](=O)[O-])C(=S)N2c2ccc(OC)cc2)cc1
- TGI: > 100 µM

SMILES: O=C(O)c1cn(C2CC2)c2cc(N3CCN(C(=O)Nc4nc(-c5ccc(Cl)cc5)cs4)CC3)c(F)cc2c1=O
- GI50: 1.38 µM
- TGI: > 100 µM

SMILES: COC(=O)c1c/c(=N\NC(=O)CC(=O)Nc2ccc(C)cc2)c2ccccc2o1
- TGI: > 100 µM

SMILES: Cc1ccc(S(=O)(=O)NC(=O)Nc2nc(Cl)cc(Cl)n2)cc1
- TGI: > 100 µM

SMILES: CCOC(=O)c1nc2ccc(C(F)(F)F)cc2nc1Nc1ccc(OC)c(OC)c1
- TGI: > 100 µM

SMILES: COc1ccc2c(c1)CC[C@@H]1[C@@H]2CC[C@]2(C)c3c(cc(C(=O)c4ccccc4)c4sccc34)C[C@@H]12
- GI50: > 100 µM
- TGI: > 100 µM

SMILES: COc1ccc(OC)c(/C=C/c2cnnc3ccccc23)c1
- TGI: > 10 µM

SMILES: O=C1CCC2(c3ccc(F)cc3)Nc3ncncc3N12 (centres undefined)
- TGI: > 10 µM

SMILES: CC1(CC(=O)OC(C#C[Si](C)(C)C)Cc2ccccc2)OCCO1 (centres undefined)
- TGI: > 100 µM

SMILES: CC(=O)O[C@H]1C(=O)[C@@]2(C)[C@H]([C@H](OC(=O)c3ccncc3)[C@]3(O)C[C@H](OC(=O)[C@H](O)[C@@H](NC(=O)c4ccccc4)c4ccccc4)C(C)=C1C3(C)C)[C@]1(OC(C)=O)CO[C@@H]1C[C@@H]2O
- TGI: > 25 µM

SMILES: Cc1c(C)c2ccc(O)cc2[nH]c1=O
- TGI: > 100 µM

SMILES: CCN(CC)CCCC(C)Nc1ccnc2cc(Cl)c(SCc3ccccc3)cc12 (centres undefined)
- GI50: 2.25 µM
- TGI: 6.31 µM

SMILES: Cc1ccc(S(=O)(=O)N/N=C2/CC[C@H](C(C)(C)C)C[C@@H]2C)cc1
- TGI: 34.9 µM

SMILES: COc1ccc(C2SC(C)C(=O)N2NC(=O)C(O)c2ccccc2)cc1 (centres undefined)
- GI50: 51.4 µM
- TGI: > 100 µM

SMILES: COc1cc2c3c(n(CCCN4CCOCC4)c(=O)c2cc1OC)-c1cc2c(cc1C3=O)OCO2
- GI50: 19.8 µM
- TGI: > 94.1 µM

SMILES: O=C(CCc1cc(-c2ccco2)n(-c2ccc([N+](=O)[O-])cc2[N+](=O)[O-])n1)Nc1ccccc1
- TGI: > 100 µM

SMILES: Cc1ccc2cccc(OC(=O)c3cc4c(cc3Cl)Sc3nccn3S4(=O)=O)c2n1
- TGI: 27.4 µM

SMILES: O=C(Nc1ccc(F)cc1)c1cc2ccc(O)cc2oc1=Nc1cccc(F)c1
- TGI: 68.6 µM

SMILES: COC1(C)Cc2c(c(C)c(O)c3c2C(=O)C=C(Cl)C3=O)O1 (centres undefined)
- TGI: > 100 µM

SMILES: COc1ccc2c(c1)N(CCO)C1=C(C(=O)OC1)C2c1cccc(Br)c1 (centres undefined)
- GI50: 0.55 µM
- TGI: > 100 µM

SMILES: Cn1c2ccccc2c(=S)c2cc(NC(=O)CCCCC(=O)Nc3ccc4c(c3)c(=S)c3ccccc3n4C)ccc21
- TGI: > 100 µM

SMILES: CN(C)CC1CN(C(=O)Nc2ccccc2)C(=N)O1 (centres undefined)
- TGI: > 100 µM

SMILES: CCNC(=O)Cc1nc2c(=O)[nH]cnc2n1C1OC(CO)C(O)C1O (centres undefined)
- TGI: > 100 µM

SMILES: CCC(CCCCC1CC[C@H]2CC(=O)C[C@@H]12)OC (some centres undefined)
- TGI: > 100 µM

SMILES: O=C1NCN(c2ccccc2)C12CCN(CCCSc1ccc(F)cc1)CC2
- TGI: > 100 µM

SMILES: [O-][n+]1onc2c1-c1nonc1CC2
- TGI: 93 µM

SMILES: C=CCn1c(=S)sc2c(=O)[nH]cnc21
- TGI: > 100 µM

SMILES: O=C1/C(=C/c2ccc(O)cc2)CCc2ccccc21
- TGI: > 96.2 µM

SMILES: CCC1CCN=C(Cn2cc(C)c(=O)[nH]c2=O)N1 (centres undefined)
- TGI: > 100 µM

SMILES: Cc1c(C)c(C)c(CSC(=N)N)c(C)c1C
- TGI: 28.8 µM

SMILES: Cc1cc(-c2ccc(Cl)cc2)c(C#N)c(=S)n1C1OC(CO)C(O)C(O)C1O (centres undefined)
- TGI: > 100 µM

SMILES: CCC(C)(C)c1ccc(Oc2cccc(C(=O)O)c2)cc1
- TGI: > 100 µM

SMILES: NC(CCCNCc1ccccc1O)C(=O)O (centres undefined)
- TGI: > 100 µM

SMILES: O=C1/C(=C/c2cccc([N+](=O)[O-])c2)N=C(c2ccccc2)N1c1ccc2c(c1)Sc1cc(N3C(=O)/C(=C/c4cccc([N+](=O)[O-])c4)N=C3c3ccccc3)ccc1N2
- TGI: 36.2 µM

SMILES: Clc1ccc(CSCc2ccc(Cl)cc2Cl)c(Cl)c1
- TGI: > 100 µM

SMILES: COc1cccc(-c2cc(NCc3ccc4c(c3)OCO4)nc(N)n2)c1
- GI50: 2.43 µM
- TGI: 25.6 µM

SMILES: CC1(C)OC([C@H](O)CO)C([C@H]2NCCS2)O1 (some centres undefined)
- TGI: > 100 µM

SMILES: CCNCCNc1cc(C2CCCC2)c(C#N)c2nc3ccccc3n12
- GI50: 3.2 µM
- TGI: 15 µM

SMILES: COc1cc([C@@H]2c3cc4c(cc3[C@H](O)[C@H]3COC(=O)[C@@H]23)OCO4)cc(OC)c1OC
- GI50: 0.652 µM and 0.507 µM
- TGI: > 100 µM
